# Data as given in the supplement of paper PMC10126150.
# Sequences with one replicate were seen in a single cluster, so their values are uncertain.
# Test system: ATP
# Assay: switch fluorescence ratio, 500 uM ATP over buffer (Cy3 cluster intensity, sum of 5 cycles each) (fold (ratio)); higher = stronger signal-on switching upon ATP binding; sequences stand for … in TCGTCGGCAGCGTCAGATGTGTATAAGAGACAGTTTTTTTTTTTTTTTTTTTTTTTTT…TC
# Conditions: aptamer strand: ATP DNA aptamer (quencher-CACCTGGGGGAGTATTGCGGAGGAAGG + anchor), 100 nM annealed; ATP concentration: 500 uM; one replicate
# Procedure, shortened: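 Clusters with intensities outside 100-1000 RFU were excluded. The remaining Cy3-labelled switching-strand clusters on a modified Illumina MiSeq flow-cell had been annealed to 100 nM quencher-labelled ATP aptamer and imaged in selection buffer, then after 15 min with 500 uM ATP at 22 °C, for five cycles separated by NaOH stripping and re-annealing. The fluorescence ratio, averaged per switch-domain sequence, is each cluster's summed target-cycle Cy3 intensity over its summed buffer-cycle Cy3 intensity.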
# 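Further: ATP exposure 15 min at 22 °C before imaging.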
row,Sequence,switch fluorescence ratio
1,TATGGGGAAG,0.967
2,TCTGTAAAGG,0.969
3,CCTGCATGTT,1.28
4,TGTTGTCAGT,0.95
5,GACGTCTATA,1.08
6,GTCTATGGGA,0.991
7,ATGGAGCGCG,1
8,GCAGGTGAG,1.13
9,TACCATGCGT,1.03
10,GCGCCATGTT,0.996
11,GGGACTAAAC,1.44
12,AAATTGAAAC,1.01
13,TAAGACTG,1.05
14,CGTAGTTGAT,1.05
15,CTACCAGTAA,1.21
16,AATATACTCA,1.09
17,CCACAACACA,1.27
18,GAAGATACTA,1.02
19,ATAACTCGCA,1.1
20,ATAACCAATG,1
21,TCTTGAATAT,0.976
22,TGCCTTTTTG,1.01
23,AAATGCGGTG,0.967

row,Sequence,switch fluorescence ratio
1,ATAAAACTCT,1.15
2,TCTTAGCCAT,1.26
3,CCGATCGTGT,1.92
4,TCGTAAGGAT,1.02
5,AATCTCAAAA,1.01
6,TGGTACCTTA,1.02
7,CGCTCTTCGA,1.03
8,TTGAACTTCG,0.995
9,AAATTTTGTA,0.998
10,CTGGAGGGCT,0.995
11,CAAGTGCGG,1.01
12,TTTACGGACT,1.22
13,AGTCAACGTA,0.978
14,AAATTACTT,1.03
15,AGTCACTGT,1.02
16,TGCTCTCAAT,1.37
17,GATGAGGCGC,1.07
18,ATGTCGGACG,0.984
19,ACGACGGGGC,2.38
20,CCGTAAGTCA,1.27
21,TCGATGAAGG,0.964
22,CGGTAAACAG,0.994
23,GCCGCCTACC,1.17

row,Sequence,switch fluorescence ratio
1,AAATGGTAAG,0.989
2,GTTGTTACTT,0.992
3,AAATTAGCTC,0.942
4,CATCGTGGGG,1.01
5,ATTGCCCGCT,1.03
6,AACCCGGAGC,1.69
7,ACCAATTAGT,0.984
8,CGAGCATACG,2.3
9,TGAATAAGTT,1.02
10,TTACAGAGGA,1.06
11,TCAACTTGGT,1.05
12,CCTTATGGTA,1.02
13,GTTGAGCGGA,0.971
14,CTTGTCACCT,1.11
15,TACGACCTGT,1.05
16,AAGGAGTGTT,1.02
17,CCCTAAAAAG,1.03
18,AAAACCTTAT,1.21
19,CAAAAGTACG,1.05
20,TAATGTCGGA,0.96
21,AGATATTTCA,0.955
22,TCAATTCATT,0.995
23,GGCCTAAGAG,1.06

row,Sequence,switch fluorescence ratio
1,CGATACACGA,1.09
2,AAAATGGCGG,1.02
3,TGCAGGCTTG,0.992
4,GTATTTGTGG,0.991
5,CTTTCGTAAT,3.45
6,GCCCACGACC,1.31
7,AGTTTGCAGC,0.969
8,GGCCAAGATT,0.987
9,ATGCAGCAAG,1.86
10,CCGTTCAACA,1.09
11,TGTATTATGA,1.05
12,TAGAGTACCC,1.01
13,CCTTTGAGAC,1.09
14,CAGGGCGCCG,0.989
15,GGACGAGTGG,0.955
16,CCGGACCGAA,1.07
17,GGGCATTACC,1.02
18,CTGGTAGCTG,0.819
19,TAGCTCCTTT,1.04
20,TAGGTGTAGA,0.974
21,GCGCTGATAT,1.21
22,GGATACTTTC,0.993
23,AAATAGATGT,0.994

row,Sequence,switch fluorescence ratio
1,GAGTGCCTT,1.01
2,GAAGAGTGTA,0.98
3,ATGTACTTCT,1.02
4,GCCCCAGACG,1.15
5,GGGGATTA,0.997
6,AGGGCATCAG,1.02
7,AGACTTGGC,1.08
8,TAACATAAAG,0.953
9,ACAACTCTCG,1.04
10,GATACCGGCC,1.69
11,ACTATTCATG,1.02
12,AGGAACAACT,1.02
13,AGGGTGATGT,0.989
14,ATACGAAGGT,1.02
15,CAATCAGGGT,1
16,ATTACGAATG,0.976
17,GGACTGGGAA,0.958
18,GTCGTAACAT,1.01
19,AGGTAAGACA,0.978
20,GACCTGAATA,1.04
21,TTCCGATATG,1.07
22,CATAGCGGTC,1.24
23,GCGACAAGGG,1.02

row,Sequence,switch fluorescence ratio
1,GTAATCTTTT,0.977
2,ACTGAACGGG,1.4
3,CCTCATATTT,1.08
4,TTGGCTGGCG,0.981
5,TACCGGACCT,1.08
6,AGATCTGTGT,0.971
7,CCTTCGGCAG,4.11
8,CCAGAGAAAA,1
9,CATGATATTA,1.02
10,GGTGTCTGAG,0.983
11,AAGCACTTAA,1.1
12,AATGGGTCAA,1.11
13,CGGATTTACT,1.06
14,TCCGTAGGTT,1.04
15,TACCAACCTA,1.11
16,TCCTAACTGG,0.967
17,GCCTCATAG,1.02
18,CGCCGGAGTG,1.03
19,CGAGAGGCA,1.02
20,TACCCTAGGT,1.11
21,CAATCAAACT,0.984
22,CTAGTGTGTG,1
23,TTCGAATGGA,1.03

row,Sequence,switch fluorescence ratio
1,GCGGACGTGT,1.05
2,GACATTGTGG,1
3,CGCCCTGTCG,1.09
4,TGACACTTCG,0.939
5,CGGGATAGCC,0.988
6,TTCTGACGTT,1.13
7,TTAGGCCACT,0.96
8,AATATGGGA,0.966
9,TGCTCTTGCT,1.05
10,ATATAACGTG,0.992
11,CAGCGCTCCA,1.09
12,AGCCAGCGTT,1.02
13,CTCGAATGGT,0.98
14,TTTGCTTTCG,0.996
15,CTAACGGTAG,0.976
16,ACTAAGGGA,1.03
17,ATTCCAAAGG,0.978
18,GGCAGGTGGA,1.02
19,ATTCAGGTCT,0.967
